# Data published in the supplement of paper PMC8728848.
# Some of the results follow.
# Tests used:
# Experiment in all cases: glycan array binding signal (z-score within array); higher = stronger binding
# Conditions in all cases: glycan notation: IUPAC condensed, linker removed
# [1] = molecular target: Neu5Ac(a2-3)Gal(b1-3)GlcNAc(b1-2)Man(a1-3)[GlcNAc(b1-4)][Neu5Ac(a2-3)Gal(b1-3)GlcNAc(b1-2)Man(a1-6)]Man(b1-4)GlcNAc(b1-4)GlcNAc
# Procedure, shortened: (§1)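 Glycan array data were curated from 3228 arrays in the Consortium for Functional Glycomics database and kept only where the protein sequence was available. Glycan names were converted to IUPAC-condensed notation, and columns mapping to the same glycan were averaged. The binding signal is a within-array Z-score, averaged across arrays of the same protein sequence at different concentrations or buffers and across linkers. Negative Z-scores can be read as non-binding.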
# [2] = molecular target: Neu5Ac(a2-3)Gal(b1-3)GlcNAc(b1-2)Man(a1-3)[Neu5Ac(a2-3)Gal(b1-3)GlcNAc(b1-2)Man(a1-6)]Man(b1-4)GlcNAc(b1-4)GlcNAc
# Procedure, shortened: as §1
# [3] = molecular target: Neu5Ac(a2-3)Gal(b1-3)GlcNAc(b1-3)Gal(b1-3)GlcNAc
# Procedure, shortened: as §1
# [4] = molecular target: Neu5Ac(a2-3)Gal(b1-3)GlcNAc(b1-3)Gal(b1-4)GlcNAc
# Procedure, shortened: as §1
# [5] = molecular target: Neu5Ac(a2-3)Gal(b1-3)GlcNAc(b1-3)GalNAc
# Procedure, shortened: as §1
# [6] = molecular target: Neu5Ac(a2-3)Gal(b1-3)GlcNAc(b1-4)Gal(b1-4)Glc
# Procedure, shortened: as §1
# [7] = molecular target: Neu5Ac(a2-3)Gal(b1-3)GlcNAc(b1-6)GalNAc
# Procedure, shortened: as §1
# [8] = molecular target: Neu5Ac(a2-3)Gal(b1-3)GlcNAc6S
# Procedure, shortened: as §1
# [9] = molecular target: Neu5Ac(a2-3)Gal(b1-3)[Fuc(a1-4)]GlcNAc
# Procedure, shortened: as §1
# [10] = molecular target: Neu5Ac(a2-3)Gal(b1-3)[Fuc(a1-4)]GlcNAc(b1-3)Gal(b1-3)[Fuc(a1-4)]GlcNAc
# Procedure, shortened: as §1
# [11] = molecular target: Neu5Ac(a2-3)Gal(b1-3)[Fuc(a1-4)]GlcNAc(b1-3)Gal(b1-4)[Fuc(a1-3)]GlcNAc
# Procedure, shortened: as §1
# [12] = molecular target: Neu5Ac(a2-3)Gal(b1-3)[GlcNAc(b1-6)]GalNAc
# Procedure, shortened: as §1
# [13] = molecular target: Neu5Ac(a2-3)Gal(b1-3)[Neu5Ac(a2-6)]GalNAc
# Procedure, shortened: as §1
# [14] = molecular target: Neu5Ac(a2-3)Gal(b1-3)[Neu5Ac(a2-6)]GlcNAc(b1-3)[Fuc(a1-3)[Gal(b1-4)]GlcNAc(b1-6)]Gal(b1-4)Glc
# Procedure, shortened: as §1
# [15] = molecular target: Neu5Ac(a2-3)Gal(b1-3)]Neu5Ac(a2-3)Gal(b1-4)]GlcNAc
# Procedure, shortened: as §1
# [16] = molecular target: Neu5Ac(a2-3)Gal(b1-4)Glc
# Procedure, shortened: as §1
# [17] = molecular target: Neu5Ac(a2-3)Gal(b1-4)GlcNAc
# Procedure, shortened: as §1
# [18] = molecular target: Neu5Ac(a2-3)Gal(b1-4)GlcNAc(b1-2)Man
# Procedure, shortened: as §1
# [19] = molecular target: Neu5Ac(a2-3)Gal(b1-4)GlcNAc(b1-2)Man(a1-3)[GlcNAc(b1-4)][Neu5Ac(a2-3)Gal(b1-4)GlcNAc(b1-2)Man(a1-6)]Man(b1-4)GlcNAc(b1-4)GlcNAc
# Procedure, shortened: as §1
# [20] = molecular target: Neu5Ac(a2-3)Gal(b1-4)GlcNAc(b1-2)Man(a1-3)[Neu5Ac(a2-3)Gal(b1-4)GlcNAc(b1-2)Man(a1-6)]Man(b1-4)GlcNAc(b1-4)GlcNAc
# Procedure, shortened: as §1
# [21] = molecular target: Neu5Ac(a2-3)Gal(b1-4)GlcNAc(b1-2)Man(a1-3)[Neu5Ac(a2-3)Gal(b1-4)GlcNAc(b1-2)Man(a1-6)]Man(b1-4)GlcNAc(b1-4)[Fuc(a1-6)]GlcNAc
# Procedure, shortened: as §1
# [22] = molecular target: Neu5Ac(a2-3)Gal(b1-4)GlcNAc(b1-2)Man(a1-3)[Neu5Ac(a2-6)Gal(b1-4)GlcNAc(b1-2)Man(a1-6)]Man(b1-4)GlcNAc(b1-4)GlcNAc
# Procedure, shortened: as §1
# [23] = molecular target: Neu5Ac(a2-3)Gal(b1-4)GlcNAc(b1-2)[Neu5Ac(a2-3)Gal(b1-4)GlcNAc(b1-4)]Man(a1-3)[GlcNAc(b1-4)][Neu5Ac(a2-3)Gal(b1-4)GlcNAc(b1-2)[Neu5Ac(a2-3)Gal(b1-4)GlcNAc(b1-6)]Man(a1-6)]Man(b1-4)GlcNAc(b1-4)GlcNAc
# Procedure, shortened: as §1
# [24] = molecular target: Neu5Ac(a2-3)Gal(b1-4)GlcNAc(b1-2)[Neu5Ac(a2-3)Gal(b1-4)GlcNAc(b1-4)]Man(a1-3)[GlcNAc(b1-4)][Neu5Ac(a2-3)Gal(b1-4)GlcNAc(b1-4)Man(a1-6)]Man(b1-4)GlcNAc(b1-4)GlcNAc
# Procedure, shortened: as §1
# [25] = molecular target: Neu5Ac(a2-3)Gal(b1-4)GlcNAc(b1-2)[Neu5Ac(a2-3)Gal(b1-4)GlcNAc(b1-6)]Man(a1-6)[Neu5Ac(a2-3)Gal(b1-4)GlcNAc(b1-2)Man(a1-3)]Man(b1-4)GlcNAc(b1-4)GlcNAc
# Procedure, shortened: as §1
# [26] = molecular target: Neu5Ac(a2-3)Gal(b1-4)GlcNAc(b1-2)[Neu5Ac(a2-3)Gal(b1-4)GlcNAc(b1-6)]Man(a1-6)[Neu5Ac(a2-3)Gal(b1-4)GlcNAc(b1-2)Man(a1-3)][GlcNAc(b1-4)]Man(b1-4)GlcNAc(b1-4)GlcNAc
# Procedure, shortened: as §1
# [27] = molecular target: Neu5Ac(a2-3)Gal(b1-4)GlcNAc(b1-3)Gal
# Procedure, shortened: as §1
# [28] = molecular target: Neu5Ac(a2-3)Gal(b1-4)GlcNAc(b1-3)Gal(b1-3)GlcNAc
# Procedure, shortened: as §1
# [29] = molecular target: Neu5Ac(a2-3)Gal(b1-4)GlcNAc(b1-3)Gal(b1-4)GlcNAc
# Procedure, shortened: as §1
# [30] = molecular target: Neu5Ac(a2-3)Gal(b1-4)GlcNAc(b1-3)Gal(b1-4)GlcNAc(b1-2)Man(a1-3)[Neu5Ac(a2-3)Gal(b1-4)GlcNAc(b1-3)Gal(b1-4)GlcNAc(b1-2)Man(a1-6)]Man(b1-4)GlcNAc(b1-4)GlcNAc
# Procedure, shortened: as §1
# [31] = molecular target: Neu5Ac(a2-3)Gal(b1-4)GlcNAc(b1-3)Gal(b1-4)GlcNAc(b1-3)Gal(b1-4)GlcNAc
# Procedure, shortened: as §1
# [32] = molecular target: Neu5Ac(a2-3)Gal(b1-4)GlcNAc(b1-3)Gal(b1-4)GlcNAc(b1-3)Gal(b1-4)GlcNAc(b1-2)Man(a1-3)[Neu5Ac(a2-3)Gal(b1-4)GlcNAc(b1-3)Gal(b1-4)GlcNAc(b1-3)Gal(b1-4)GlcNAc(b1-2)Man(a1-6)]GalNAc
# Procedure, shortened: as §1
# [33] = molecular target: Neu5Ac(a2-3)Gal(b1-4)GlcNAc(b1-3)Gal(b1-4)GlcNAc(b1-3)GalNAc
# Procedure, shortened: as §1
# [34] = molecular target: Neu5Ac(a2-3)Gal(b1-4)GlcNAc(b1-3)Gal(b1-4)GlcNAc(b1-3)[Neu5Ac(a2-3)Gal(b1-4)GlcNAc(b1-3)Gal(b1-4)GlcNAc(b1-6)]GalNAc
# Procedure, shortened: as §1
# [35] = molecular target: Neu5Ac(a2-3)Gal(b1-4)GlcNAc(b1-3)Gal(b1-4)GlcNAc(b1-6)[Gal(b1-3)]GalNAc
# Procedure, shortened: as §1
# [36] = molecular target: Neu5Ac(a2-3)Gal(b1-4)GlcNAc(b1-3)Gal(b1-4)[Fuc(a1-3)]GlcNAc
# Procedure, shortened: as §1
# [37] = molecular target: Neu5Ac(a2-3)Gal(b1-4)GlcNAc(b1-3)GalNAc
# Procedure, shortened: as §1
# [38] = molecular target: Neu5Ac(a2-3)Gal(b1-4)GlcNAc(b1-3)[Neu5Ac(a2-3)Gal(b1-4)GlcNAc(b1-6)]GalNAc
# Procedure, shortened: as §1
binder,measurement,setting,value
PX14367A-bth-493-35-493 (Bacteroides thetaiotaomicron) (protein) VSSDQVAVAGNAERLFNGAWYNLFEYGTTYANIGYRALQCQDDMMASDVVSRPKYGFNSSYQFNDVAIPSDGRTSFAWYLIYKTIDNCNTAISIKGDSEELRQAQGQALALRAFCYLHLVQHYQFTYLKDKDAPCVPIYTEPTTSGTKPKGKSTVAQVYQQIFDDLNLAQDYLTNYVRKGDGQKFKPNTDVVNGLMARAYLLTGQWGEAAKAAEAARKGYSLMTTTAEYEGFNNISNKEWIWGSPQTLSQSDASYNFYYLDATYVGAYSSFMADPHLMDTFVKGDIRLPLFQWMREGYLGYKKFHMRSDDTADLVLMRSAEMYLIEAEAKVRDGVALDQAVAPLNTLRTARGVGNYDVTGKTKEQVIDEILMERRRELWGEGFGITDVLRNQKAVERMALSEDMQKTEVDCWQEGGSFAKRNPLGHWFLNFPDGKAFSANSSYYLYAIPEKEINANPNL,glycan array binding signal (z-score),[1],-0.15
same,glycan array binding signal (z-score),[2],0.079
same,glycan array binding signal (z-score),[3],-0.589
same,glycan array binding signal (z-score),[4],-0.294
same,glycan array binding signal (z-score),[5],-0.042
same,glycan array binding signal (z-score),[6],-0.755
same,glycan array binding signal (z-score),[7],-0.34
same,glycan array binding signal (z-score),[8],-0.59
same,glycan array binding signal (z-score),[9],0.065
same,glycan array binding signal (z-score),[10],0.054
same,glycan array binding signal (z-score),[11],0.257
same,glycan array binding signal (z-score),[12],-0.143
same,glycan array binding signal (z-score),[13],-0.079
same,glycan array binding signal (z-score),[14],-0.287
same,glycan array binding signal (z-score),[15],0.342
same,glycan array binding signal (z-score),[16],0.072
same,glycan array binding signal (z-score),[17],-0.15
same,glycan array binding signal (z-score),[18],0.126
same,glycan array binding signal (z-score),[19],-0.343
same,glycan array binding signal (z-score),[20],0.083
same,glycan array binding signal (z-score),[21],-0.436
same,glycan array binding signal (z-score),[22],-0.4
same,glycan array binding signal (z-score),[23],0.838
same,glycan array binding signal (z-score),[24],-0.007
same,glycan array binding signal (z-score),[25],0.867
same,glycan array binding signal (z-score),[26],-0.621
same,glycan array binding signal (z-score),[27],-0.356
same,glycan array binding signal (z-score),[28],-0.168
same,glycan array binding signal (z-score),[29],-0.547
same,glycan array binding signal (z-score),[30],-0.364
same,glycan array binding signal (z-score),[31],-0.083
same,glycan array binding signal (z-score),[32],1.29
same,glycan array binding signal (z-score),[33],0.122
same,glycan array binding signal (z-score),[34],0.395
same,glycan array binding signal (z-score),[35],-0.037
same,glycan array binding signal (z-score),[36],-0.478
same,glycan array binding signal (z-score),[37],-0.667
same,glycan array binding signal (z-score),[38],0.867
